Paper PMC4336329 (PLoS ONE, 2015)
Among all 310,000 compounds or so, about 14,000 (4.5%) showed an effect of 50% or more. The effect is printed as a negative number. Some of the results follow.

molecular target: human ether-à-go-go-related gene (hERG) potassium channel (human, UniProt Q12809); assay: primary screen, population patch clamp on CHO cells stably expressing hERG
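Also: peak tail current of the secondary pulse compared with the same well before compound.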

Sequence of human ether-à-go-go-related gene (hERG) potassium channel (Q12809 whole entry, looked up): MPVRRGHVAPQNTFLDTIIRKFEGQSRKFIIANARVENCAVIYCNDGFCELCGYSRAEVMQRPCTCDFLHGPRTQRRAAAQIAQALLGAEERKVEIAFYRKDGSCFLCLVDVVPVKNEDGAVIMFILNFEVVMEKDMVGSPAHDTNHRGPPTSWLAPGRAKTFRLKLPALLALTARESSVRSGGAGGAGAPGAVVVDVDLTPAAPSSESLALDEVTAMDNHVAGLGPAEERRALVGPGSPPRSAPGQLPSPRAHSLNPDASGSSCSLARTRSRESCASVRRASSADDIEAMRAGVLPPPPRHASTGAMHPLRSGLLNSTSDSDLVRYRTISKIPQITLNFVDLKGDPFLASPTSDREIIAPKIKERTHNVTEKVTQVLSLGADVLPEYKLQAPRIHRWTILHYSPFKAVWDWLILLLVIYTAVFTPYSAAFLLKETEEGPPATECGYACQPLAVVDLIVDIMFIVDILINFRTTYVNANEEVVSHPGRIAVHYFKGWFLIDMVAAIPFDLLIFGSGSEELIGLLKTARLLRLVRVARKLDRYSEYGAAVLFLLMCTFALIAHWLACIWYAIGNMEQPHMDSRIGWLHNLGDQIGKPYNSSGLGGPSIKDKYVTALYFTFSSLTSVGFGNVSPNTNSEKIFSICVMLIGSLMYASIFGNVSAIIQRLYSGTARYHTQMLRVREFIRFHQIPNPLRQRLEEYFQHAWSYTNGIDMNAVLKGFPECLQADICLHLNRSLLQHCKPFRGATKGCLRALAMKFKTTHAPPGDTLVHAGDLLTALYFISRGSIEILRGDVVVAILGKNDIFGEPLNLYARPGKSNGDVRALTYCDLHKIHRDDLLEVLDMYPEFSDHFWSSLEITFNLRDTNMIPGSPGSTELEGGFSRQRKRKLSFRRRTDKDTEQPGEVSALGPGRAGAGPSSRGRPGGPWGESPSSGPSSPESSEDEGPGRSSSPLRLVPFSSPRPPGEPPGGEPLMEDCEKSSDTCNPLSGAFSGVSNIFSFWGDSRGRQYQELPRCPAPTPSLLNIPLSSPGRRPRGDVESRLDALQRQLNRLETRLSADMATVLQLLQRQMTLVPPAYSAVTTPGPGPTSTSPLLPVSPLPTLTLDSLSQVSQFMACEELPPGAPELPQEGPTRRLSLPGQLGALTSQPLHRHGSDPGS

Point of comparison: `O=C(CCN1CCc2ccccc2C1)Nc1ccccc1`, “hERG current change (%, negative = inhibition) at 10uM” value -24.2%. Against it:
- CCOC(=O)N1CCN(Cc2nc(-c3cccc(C)c3)no2)CC1 — lower, -33.6%
- CCOc1cc(C2C(C#N)=C(N)Oc3n[nH]c(C)c32)ccc1OCCN1CCOCC1 (centres unmarked) — higher, 11.9%
- COc1ccc(-c2nsc3c(N4CCN(S(=O)(=O)c5ccccc5F)CC4)ncnc23)cc1 — higher, -17.4%
- O=C(CSc1nnc(-c2ccc(NS(=O)(=O)c3ccccc3)cc2)o1)NCC1CCCO1 (centres unmarked) — higher, 16.2%
- COc1cccc(-c2cn3nc4c(nc3n2)CCCC4)c1 — lower, -41.9%
- CC(C)[C@H](NC(=O)c1ccco1)C(=O)OCC(=O)NC12CC3CC(CC(C3)C1)C2 — higher, -18.7%
- CCOC(=O)N1CCC(NC(=O)CC(NS(=O)(=O)c2ccc(Cl)cc2)c2ccco2)CC1 (centres unmarked) — lower, -53%
- CC(=O)Nc1cccc(N2CCCC2=O)c1 — higher, -1.04%
- CC1=C(C(N)=O)C(c2cccs2)NC(=O)N1 (centres unmarked) — higher, -1.46%
- CCc1ccc(-c2nc(CS(=O)CC(=O)NCCc3ccccc3)c(C)o2)cc1 (centres unmarked) — higher, 6.8%
- N#CCCn1ccc(NC(=O)c2ccc(Cl)cc2)n1 — higher, 10.8%
- COc1ccc2c(c1OC)C(=O)N(c1ncn[nH]1)C2 — higher, 13.5%
- O=C(CCC1CCCCC1)NCc1ccccn1 — higher, -10.8%
- O=C(/C=C/c1ccc(F)cc1)NCCNC(=O)/C=C/c1ccc(F)cc1 — higher, 35.7%
- O=C(NC1CCCCC1)NC1CC2CCC(C1)N2C(=S)NCc1ccco1 (centres unmarked) — higher, -6.63%
- COc1cccc(C(=O)NNC(=O)C2CC(C)=C(C)CC2C(=O)O)c1 (centres unmarked) — higher, 13%
- OCC1CCCN(C2CCN(Cc3nc(Cc4cccc(C(F)(F)F)c4)no3)CC2)C1 (centres unmarked) — lower, -74.1%
- CC(=O)Oc1cc2c(C(=O)NCc3ccncc3)c(C)oc2c2ccccc12 — higher, -12.1%
- Cc1nc2c(c(C)nn2-c2ccccc2)c(C)c1CCC(=O)N1CCC2(CC1)OCCO2 — lower, -32.3%
- O=C(Cc1ccc(F)cc1)c1ccc(O)cc1O — higher, -15.5%
- CCn1cc(C(=O)N2CCN(c3ccccc3F)CC2)c(=O)c2ccc(C)nc21 — higher, -5.94%
- O=C(CSc1oc(-c2ccco2)nc1S(=O)(=O)c1ccc(F)cc1)NCC1CCCO1 (centres unmarked) — higher, -20%
- CCc1nnc(NC(=O)CCC(=O)N2CCN(c3cc(Cl)ccc3C)CC2)s1 — higher, -13.4%
- CC(=O)Oc1ccc(NC(=O)CSc2ccccc2)cc1 — higher, -3.08%
- CCN(CC)CCN(C(=O)C1=COCCO1)c1nc2cc3c(cc2s1)OCO3.Cl — lower, -72%
- COc1ccc(/C(C)=N/Nc2ccccc2Cl)c(O)c1 — higher, 16.5%
- O=C(NCC1CCCCC1)c1ccccc1[N+](=O)[O-] — higher, 17.6%
- COc1c(-c2ccccc2)oc2c(ccc3occc32)c1=O — higher, 9.21%
- Cc1ccc(NC(=O)NC(=O)CN2CCN(c3ccc(O)cc3)CC2)c(C)c1 — higher, 10.2%
- O=C(CSc1nnc(CCc2nc3ccccc3[nH]2)n1-c1ccccc1)NCc1ccco1 — higher, 0.0218%
- COC(=O)c1ccc(NC2=CC(=O)CC(C)(C)C2)cc1 — higher, 1.48%
- CCOC(=O)c1cc(-c2csc(-c3cccc(Cl)c3)n2)on1 — higher, 18.8%
- Cc1cc(Cl)ccc1NC(=O)COC(=O)c1c(C)noc1C — higher, 13.9%
- CC(OC(=O)C1=COCCO1)C(=O)Nc1ccc(Cl)cn1 (centres unmarked) — higher, 5.14%
- CN(C)c1ccc(NC(=O)Nc2csc3ccccc23)cc1 — higher, 18.4%
- CCC1(c2ccccc2)NC(=O)N(CC(=O)Nc2cc(Cl)ccc2N2CCOCC2)C1=O (centres unmarked) — higher, -11.2%
- O=C(COC(=O)C1CCC1)NCc1ccccc1 — higher, 6.8%
- O=c1[nH]c(O)c(/C=C2\C=Nc3ccccc32)[nH]1 — higher, 20.9%
- O=C(N/N=C/c1ccc2c(c1)OCO2)c1cccnc1 — higher, 32.5%
- Cc1cccc(NC(=O)c2ccc(CN3CCc4ccccc4C3)cc2)c1C — higher, 4.49%
- Cc1nc2ccccn2c1C(=O)CSc1cccc(Cl)c1 — lower, -27.4%
- CCSc1cc(C)nc2c(-c3ccccc3)c(C)nn12 — higher, -6.25%
- Cc1ccc2ncccc2c1 — higher, 8.75%
- COc1ccc(NC(=O)CCN2CCCCCC2)cc1 — higher, -12.3%
- Cc1cc(N2CCN(c3ccc(F)cc3)CC2)nc2cc(O)ccc12 — lower, -75.9%
- N#Cc1ccc2ccn(CC(=O)NCc3ccco3)c2c1 — higher, -6.81%
- Cc1cccc(C(=O)Nc2cc(C)ccc2NC(=O)COc2ccccc2)c1 — higher, 10.8%
- CC(C)c1ccc(OCC(=O)NC(C)c2ccccc2)cc1 (centres unmarked) — higher, 1%
- O=C(NCCN1C(=O)S/C(=C\c2cccs2)C1=O)[C@H](Cc1ccccc1)N1C(=O)c2ccccc2C1=O — higher, -2.44%
- CCNC(=S)Nc1ccc(Cl)cc1 — higher, 8.45%
- Cc1sc2ccc3sccc3c2[n+]1C.[I-] — higher, 10.6%
- S=C(NCC1CCCO1)NC1CCCCC1 (centres unmarked) — higher, 20.3%
- Cn1cc(S(=O)(=O)N2CCOCC2)cc1C(=O)NCCc1ccccc1 — higher, -13.4%
- O=C(Oc1ccc2ccc(=O)oc2c1)c1ccco1 — lower, -73.1%
- NNC(=O)c1ccc2nc(-c3ccc(Br)cc3)cn2c1 — lower, -33.6%
- O=C(O)CNS(=O)(=O)c1ccc2c(c1)Cc1cc(S(=O)(=O)NCC(=O)O)ccc1-2 — higher, 2.59%
- Cc1ccc(C(=O)Nc2ccccc2C(=O)N2CCCCC2C)cc1 (centres unmarked) — higher, -6.37%
- CC(C)(/C=N/O)/[N+]([O-])=C/c1ccco1 — higher, 2.94%
- CSc1ccccc1NC(=O)CN1c2ccccc2CC1C (centres unmarked) — higher, 1.77%
- CCn1c(SCC(=O)NC2CCCC2)nnc1-c1c[nH]c2ccccc12 — higher, 1.48%
- Nc1cc(Cl)cc(Cl)c1 — higher, 10.2%
- O=C1CC(C(=O)Nc2cccc(Cl)c2)n2ncnc2N1 (centres unmarked) — higher, 27.7%
- O=C(Nc1nc2ccccc2s1)C1CC(=O)N(c2ccccc2)C1 (centres unmarked) — higher, -11.2%
- CC1(C)C(=O)NCCN1C(=O)c1ccc2nc(Cc3ccccc3F)oc2c1 — higher, 9.49%
- O=C(O)CCCN=CC1=C(O)CNC1=O — higher, 21%
- O=C(NC1CCCC1)C(c1cccnc1)N(C(=O)c1ccco1)c1ccc(F)cc1 (centres unmarked) — higher, 13.8%
- COc1ccc(/C=N\Nc2ncc(F)c(N3CCOCC3)n2)cc1OC — lower, -31.1%
- COc1cccc(-n2cnnc2SCC(=O)NC2CC2)c1 — higher, 17.5%
- O=C(NNC(=O)c1ccc2c(=O)n3c(nc2c1)CCC3)c1cccc(Cl)c1 — higher, -8.21%
- NC(=S)Nc1ccc(S(=O)(=O)c2ccc(NC(N)=S)cc2)cc1 — higher, 28.1%
- COC(=O)c1ccc(CSc2nc3cc(Cl)ccc3o2)cc1 — higher, 12.9%
- COc1cc(C(=O)N/N=C/C23CC[C@@H](O)CC2(O)CC[C@@H]2[C@@H]3CCC3(C)C(C4=CC(=O)OC4)CCC23O)ccc1O (some centres unmarked) — higher, 27.4%
- NC(=S)c1ccc(C(N)=S)o1 — higher, 15.1%
- CC(=O)NC(CC(=O)OC(C)C(=O)Nc1ccc(Cl)cn1)c1ccccc1 (centres unmarked) — higher, -3.51%
- Cc1ccc(Cl)cc1N1CCN(C(=O)C2CCC(=O)N2C(C)C)CC1 (centres unmarked) — higher, -5.02%
- O=S(=O)(c1ccc2c(c1)OCCO2)N1CCN(c2cccc(Cl)c2)CC1 — higher, 3.55%
- CN(Cc1ccc(O)cc1)C1CCCCC1 — higher, -16.7%
- COc1ccc(/C=C/C(=O)Nc2ccc(S(=O)(=O)N3CCOCC3)cc2)c(OC)c1 — higher, -3.51%
- COc1cccc(Nc2nc3ccc(OC)cc3s2)c1 — higher, 8.8%
- Cc1ccc(-c2csc(NC(=O)c3ccc(F)cc3)c2C(=O)O)cc1 — higher, 34.7%
- O=C(O)c1ccc(N2C(=O)/C(=C/C=C/c3ccccc3)SC2=S)cc1 — higher, 0.894%
- O=C(Nc1cccc(O)c1)C(Cc1ccccc1)N1C(=O)c2cccc3cccc(c23)C1=O (centres unmarked) — higher, 11%
- COC(=O)c1cc(S(=O)(=O)N(C)C2CCCCC2)oc1C — higher, -3.75%
- Cc1ccc(C)c(-c2nc3ccc(N)cc3[nH]2)c1 — higher, -15.5%
- O=C1CC(C(F)(F)F)=NN1 — higher, 16.9%
- CC(C)c1ccc(-c2cc(C(=O)NN3CCN(C)CC3)c3ccccc3n2)cc1 — higher, -3.79%
- CCOCCCNC(=O)CN1CCN(S(=O)(=O)c2ccc3c(c2)CCC3)CC1 — higher, 3.99%
- Cc1ccc(CNCC(=O)Nc2ccc(N3CCOCC3)cc2)cc1.O=C(O)C(=O)O — higher, -13.6%
- Cc1ccc(-c2nc(Nc3ccc(O)cc3)c3ccccc3n2)cc1 — higher, 22.4%
- CCN(CCCNC(=O)CCn1c(=S)[nH]c2cc3c(cc2c1=O)OCO3)c1cccc(C)c1 — higher, 12.9%
- Cc1ccc2cc(C)c3nnc(SCC(=O)NCc4ccco4)n3c2c1 — lower, -25.5%
